Data on one substance can be found in patent publication US8895004B2 (priority 2007, dated 2014).

For test [1], the target named is T1, P/Q type voltage-gated presynaptic calcium channel (Rattus norvegicus, UniProt P54282).
T1 construct: Typical P/Q channel-mediated currents could be reliably elicited in somatic whole-cell recordings under our culture conditions; endogenous in cells; host or cells: cultured hippocampal neurons
The class given is cell-based.

In test [2] the test system is P/Q type voltage-gated presynaptic calcium channel. The class given is binding. The conditions noted are these: rat brain membrane fractions.

As to “Aβ(1-42) globulomer: soluble, globular, non-covalent association of Aβ(1-42) peptides, apparent molecular weight 38/48 kDa, obtained as in Example 6b of WO2004/067561”, in test [1], the “activity of the P/Q type voltage-gated presynaptic calcium channel” value is listed as “directly inhibits the activity” and the “washout after binding to the P/Q channel” value is recorded as “cannot be readily washed out”. The “physical binding to the P/Q type channel” value in test [2] is recorded as “capable of physically binding”.
